The chains are these.
T1: RBFOX1 RRM RbFoxmut (Fox-RRM*) (Homo sapiens, UniProt Q9NWB1 109-208, R118D;E147R;N151S;E152T)
T1 sequence: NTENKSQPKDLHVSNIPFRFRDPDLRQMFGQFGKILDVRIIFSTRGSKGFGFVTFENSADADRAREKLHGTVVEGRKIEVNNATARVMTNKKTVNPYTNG

B1: UCACCUG (DNA:RNA)
RNA: GGGAGACCGGAAUUCAGAUUGUCCUCACCUGUUAAAUCCCGUCGUAGCCACCA
DNA 1: CAATCTGAATTCCGGTCTCCC
DNA 2: TGGTGGCTACGACGGGATT
B2: CAGCGCG (DNA:RNA)
RNA: B1 RNA with U25C, C26A, A27G, C29G, U30C
DNA 1: CAATCTGAATTCCGGTCTCCC
DNA 2: TGGTGGCTACGACGGGATT
B3: GUCGCAU (DNA:RNA)
RNA: B1 RNA with U25G, C26U, A27C, C28G, U30A, G31U
DNA 1: CAATCTGAATTCCGGTCTCCC
DNA 2: TGGTGGCTACGACGGGATT
B4: AGCCUCA (DNA:RNA)
RNA: B1 RNA with U25A, C26G, A27C, C29U, U30C, G31A
DNA 1: CAATCTGAATTCCGGTCTCCC
DNA 2: TGGTGGCTACGACGGGATT
B5: GGCAGUU (DNA:RNA)
RNA: B1 RNA with U25G, C26G, A27C, C28A, C29G, G31U
DNA 1: CAATCTGAATTCCGGTCTCCC
DNA 2: TGGTGGCTACGACGGGATT
B6: AAGUUCU (DNA:RNA)
RNA: GGGAGACCGGAAUUCAGAUUGUCCAAGUUCUUUAAAUCCCGUCGUAGCCACCA
DNA 1: CAATCTGAATTCCGGTCTCCC
DNA 2: TGGTGGCTACGACGGGATT
B7: ACACUCA (DNA:RNA)
RNA: B6 RNA with A26C, G27A, U28C, U31A
DNA 1: CAATCTGAATTCCGGTCTCCC
DNA 2: TGGTGGCTACGACGGGATT
B8: AAGAUGU (DNA:RNA)
RNA: B6 RNA with U28A, C30G
DNA 1: CAATCTGAATTCCGGTCTCCC
DNA 2: TGGTGGCTACGACGGGATT
B9: ACGCUUU (DNA:RNA)
RNA: B6 RNA with A26C, U28C, C30U
DNA 1: CAATCTGAATTCCGGTCTCCC
DNA 2: TGGTGGCTACGACGGGATT
B10: CGCACCC (DNA:RNA)
RNA: B6 RNA with A25C, A26G, G27C, U28A, U29C, U31C
DNA 1: CAATCTGAATTCCGGTCTCCC
DNA 2: TGGTGGCTACGACGGGATT
B11: UUCCCUG (DNA:RNA)
RNA: B1 RNA with C26U, A27C
DNA 1: CAATCTGAATTCCGGTCTCCC
DNA 2: TGGTGGCTACGACGGGATT
B12: AGAAUGG (DNA:RNA)
RNA: B6 RNA with A26G, G27A, U28A, C30G, U31G
DNA 1: CAATCTGAATTCCGGTCTCCC
DNA 2: TGGTGGCTACGACGGGATT
B13: ACAGGUC (DNA:RNA)
RNA: B1 RNA with U25A, C28G, C29G, G31C
DNA 1: CAATCTGAATTCCGGTCTCCC
DNA 2: TGGTGGCTACGACGGGATT
B14: AAUCAAG (DNA:RNA)
RNA: B6 RNA with G27U, U28C, U29A, C30A, U31G
DNA 1: CAATCTGAATTCCGGTCTCCC
DNA 2: TGGTGGCTACGACGGGATT
B15: AUGGAUA (DNA:RNA)
RNA: B6 RNA with A26U, U28G, U29A, C30U, U31A
DNA 1: CAATCTGAATTCCGGTCTCCC
DNA 2: TGGTGGCTACGACGGGATT
B16: UCAUGGU (DNA:RNA)
RNA: B1 RNA with C28U, C29G, U30G, G31U
DNA 1: CAATCTGAATTCCGGTCTCCC
DNA 2: TGGTGGCTACGACGGGATT
B17: GCAUCCA (DNA:RNA)
RNA: B1 RNA with U25G, C28U, U30C, G31A
DNA 1: CAATCTGAATTCCGGTCTCCC
DNA 2: TGGTGGCTACGACGGGATT
B18: UUCCAUA (DNA:RNA)
RNA: B1 RNA with C26U, A27C, C29A, G31A
DNA 1: CAATCTGAATTCCGGTCTCCC
DNA 2: TGGTGGCTACGACGGGATT
B19: AUCGGUG (DNA:RNA)
RNA: B1 RNA with U25A, C26U, A27C, C28G, C29G
DNA 1: CAATCTGAATTCCGGTCTCCC
DNA 2: TGGTGGCTACGACGGGATT
B20: CCACGCG (DNA:RNA)
RNA: B1 RNA with U25C, C29G, U30C
DNA 1: CAATCTGAATTCCGGTCTCCC
DNA 2: TGGTGGCTACGACGGGATT
B21: GUAAACU (DNA:RNA)
RNA: B6 RNA with A25G, A26U, G27A, U28A, U29A
DNA 1: CAATCTGAATTCCGGTCTCCC
DNA 2: TGGTGGCTACGACGGGATT
B22: GCGUACG (DNA:RNA)
RNA: B6 RNA with A25G, A26C, U29A, U31G
DNA 1: CAATCTGAATTCCGGTCTCCC
DNA 2: TGGTGGCTACGACGGGATT
B23: AAGUUCA (DNA:RNA)
RNA: B6 RNA with U31A
DNA 1: CAATCTGAATTCCGGTCTCCC
DNA 2: TGGTGGCTACGACGGGATT
B24: CGCAUAC (DNA:RNA)
RNA: B6 RNA with A25C, A26G, G27C, U28A, C30A, U31C
DNA 1: CAATCTGAATTCCGGTCTCCC
DNA 2: TGGTGGCTACGACGGGATT
B25: CAAUCAU (DNA:RNA)
RNA: B6 RNA with A25C, G27A, U29C, C30A
DNA 1: CAATCTGAATTCCGGTCTCCC
DNA 2: TGGTGGCTACGACGGGATT
B26: UUCCCUA (DNA:RNA)
RNA: B1 RNA with C26U, A27C, G31A
DNA 1: CAATCTGAATTCCGGTCTCCC
DNA 2: TGGTGGCTACGACGGGATT
B27: GAAGCGG (DNA:RNA)
RNA: B1 RNA with U25G, C26A, C28G, U30G
DNA 1: CAATCTGAATTCCGGTCTCCC
DNA 2: TGGTGGCTACGACGGGATT
B28: UAAUUAA (DNA:RNA)
RNA: B6 RNA with A25U, G27A, C30A, U31A
DNA 1: CAATCTGAATTCCGGTCTCCC
DNA 2: TGGTGGCTACGACGGGATT
B29: GCCGGAG (DNA:RNA)
RNA: B1 RNA with U25G, A27C, C28G, C29G, U30A
DNA 1: CAATCTGAATTCCGGTCTCCC
DNA 2: TGGTGGCTACGACGGGATT
B30: GAAACUU (DNA:RNA)
RNA: B1 RNA with U25G, C26A, C28A, G31U
DNA 1: CAATCTGAATTCCGGTCTCCC
DNA 2: TGGTGGCTACGACGGGATT
B31: CUACGGU (DNA:RNA)
RNA: B1 RNA with U25C, C26U, C29G, U30G, G31U
DNA 1: CAATCTGAATTCCGGTCTCCC
DNA 2: TGGTGGCTACGACGGGATT

The values that follow come from paper PMC9911399, “Two distinct binding modes provide the RNA-binding protein RbFox with extraordinary sequence specificity”.

Numbering of substitutions follows the chain as printed; changes in the protein carry UniProt numbers. Some of the results follow.

This assay concerns the target T1, RBFOX1 RRM RbFoxmut (Fox-RRM*). In words: EMSA; HiTS-Eq, 1 nM pool, 10 min; buffer printed only for the single-RNA assays: 10 mM Tris pH 7.5, 150 mM NaCl, 3.4 mM EDTA, 0.001% NP-40, 30 C. The settings on record: tags: His6 N-terminal (pET28a); label: 5' 32P. The gist of the method:
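Purified wild-type or mutant RbFox RRM at increasing concentrations was equilibrated with 1 nM of 5′-radiolabelled RNA carrying 7 randomized nucleotides for 10 min in 50 µL. Unbound RNA was separated by 8% native PAGE and sequenced. Relative association constants came from read-count changes of each RNA species compared with the control reaction, normalised to the cognate motif.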
For B1, the binding signal is 0.0853 KA relative to UGCAUGU.

For the molecule B2, the binding signal is 0.155 KA relative to UGCAUGU.

B3: the binding signal was 0.131 KA relative to UGCAUGU.

Take B4: the binding signal is 0.103 KA relative to UGCAUGU.

In the case of B5, the binding signal was 0.0703 KA relative to UGCAUGU.

Regarding B6, the binding signal was 0.0763 KA relative to UGCAUGU.

With B7, the binding signal was 0.0689 KA relative to UGCAUGU.

With B8, the binding signal is 0.113 KA relative to UGCAUGU.

Turning to B9, the binding signal was 0.1 KA relative to UGCAUGU.

In the case of B10, the binding signal is 0.0825 KA relative to UGCAUGU.

For B11, the binding signal is 0.0888 KA relative to UGCAUGU.

For B12, the binding signal is 0.541 KA relative to UGCAUGU.

For the molecule B13, the binding signal is 0.128 KA relative to UGCAUGU.

Consider B14, for which the binding signal was 0.0698 KA relative to UGCAUGU.

Take B15: the binding signal is 0.135 KA relative to UGCAUGU.

B16: the binding signal was 0.143 KA relative to UGCAUGU.

For B17, the binding signal is 0.338 KA relative to UGCAUGU.

For B18, the binding signal is 0.129 KA relative to UGCAUGU.

With B19, the binding signal is 0.14 KA relative to UGCAUGU.

Take B20: the binding signal was 0.133 KA relative to UGCAUGU.

With B21, the binding signal was 0.0901 KA relative to UGCAUGU.

In the case of B22, the binding signal was 0.23 KA relative to UGCAUGU.

For the molecule B23, the binding signal was 0.115 KA relative to UGCAUGU.

In the case of B24, the binding signal is 0.135 KA relative to UGCAUGU.

Take B25: the binding signal was 0.0811 KA relative to UGCAUGU.

For the molecule B26, the binding signal is 0.075 KA relative to UGCAUGU.

As for B27, the binding signal is 0.0502 KA relative to UGCAUGU.

As to B28, the binding signal was 0.0571 KA relative to UGCAUGU.

For the molecule B29, the binding signal was 0.0788 KA relative to UGCAUGU.

With B30, the binding signal is 0.0723 KA relative to UGCAUGU.

Consider B31, for which the binding signal is 0.0878 KA relative to UGCAUGU.
